Measurements as given in the RNAGym collection of RNA variant scans (doi:10.7554/elife.90254).
Read counts are not given, so values of variants with three or more changes are uncertain.

B1: LINE1-mini (parent)
chain: GGCAGAGCUCAACACAGCGUGGCAAAGUGGCUGUGGCUAGACUGCC

Variants of: B1
Assay: self-cleavage, relative activity (ratio to wild type); higher = more cleavage; in vitro, sequencing; the parent is a self-cleaving ribozyme

Row | Variant | self-cleavage
1 | G2A C3U G7U C46A | 0.2
2 | G1U U34A U43G | 0.01
3 | G2A A25G U38A C46A | 0.09
4 | G2A A16U G22U | 0.44
5 | G2A A4U C13A | 1.39
6 | G2A A12C C23A G33A C46U | 0.13
7 | G2A C8U G36C U38G | 0.47
8 | G1U U9A U32A | 0.03
9 | G2A C3U C10A A14C A39G | 0.04
10 | G2A A24C G27A G40U | 0.11
11 | G2A A4C G22A G29A | 0.24
12 | G1U U38A C46G | 0.12
13 | G2A C3U G29A U32G | 0.24
14 | G2A A14G U43A | 0.4
15 | G2A A4U G5A G21U | 0.5
16 | G2A C3A C37G U43A | 0.33
17 | G1U U28A C31A U32C | 0.03
18 | G2A C8U G21U C46G | 0.26
19 | G2A A16G G22C C23A | 0.09
20 | G2A A24U U38G | 0.06
21 | G2A A6U C10A A14C G17C C23A U32G | 0.02
22 | G1U U9C G33C G40C C42U | 0.06
23 | G2A A6C A16G U34C | 0.04
24 | G2A C8U C10U G29U C46A | 0

Row | Variant | self-cleavage
25 | G2A C8A G33C | 0.12
26 | G1U G30U G40U | 0.04
27 | G1U U32C U34A | 0
28 | G2A C10U A25U A26U | 0.59
29 | G2A A4C A12C A41U | 0.04
30 | G1U U9C C15A | 0.02
31 | G2A A11G C31A | 0.05
32 | G2A A6G C10A G27U G40U C45G | 0.01
33 | G2A A6G G19C C46G | 0.09
34 | G2A C10U G21A G27A | 0.13
35 | G2A A11G G35U | 0.03
36 | G2A A4U A14U G27U G40A | 0.26
37 | G2A A16U U34C | 0.32
38 | G2A C10A C23G G33U G36C | 0.04
39 | G2A C10A A24G U38G C46G | 0.08
40 | G2A A14G C15A C18A U34A C37A | 0.06
41 | G2A A4G C15U G22A G36C C37G | 0.04
42 | G2A A4U A6G C45U | 0.32
43 | G2A A14U A16G A26G C45A | 0.26
44 | G2A A24U A25U | 0.74
45 | G2A A4U A26G | 0.71
46 | G2A A26C G35U | 0.12
47 | G2A A12G G19A C46A | 0.04
48 | G2A A4U G19U A25C G27U | 0.19

Row | Variant | self-cleavage
49 | G2A C10U G36C | 0.03
50 | G2A A4G G21C G30C | 0.36
51 | G2A A11G C18A | 0.03
52 | G2A C10U A11U A25U | 0.1
53 | G2A C10U A14U | 0.11
54 | G2A A24C C31A G35A A41U G44U C46A | 0.01
55 | G2A A11C G19C A25U A41C | 0.01
56 | G2A C3G U38A A39G U43A | 0.61
57 | G2A A12C A25U A26G | 0.03
58 | G2A A4C C15U G21A | 0.25
59 | G2A A25U G35U | 0.45
60 | G2A A12U U34C G35C C45A | 0.01
61 | G1U U20C C23U | 0.12
62 | G2A C8A G40U | 0.52
63 | G2A A11C G22U G29C G36A U43C C46U | 0.02
64 | G2A C8A A25C G33A | 0.13
65 | G2A A11G A14C C18G U34A U43C | 0.01
66 | G2A A12C G19A C46A | 0.06
67 | G2A C3A G7A A39U G44U | 0.5
68 | G2A C8G G35C A39U | 0.03
69 | G2A C10U G35A A41G | 0.09
70 | G1U U34A A39C | 0.03
71 | G1U U34A G36C G40U C46G | 0
72 | G2A A4U A39U | 0.21

Row | Variant | self-cleavage
73 | G2A A4C G40U U43G | 0.25
74 | G2A C3U C13U A39G | 0.16
75 | G1U U28G A41U C45U | 0.41
76 | G1U G33U C45A | 0.04
77 | G2A C3A A25C G30C | 0.92
78 | G2A C13A C15G G22U A26C | 0.05
79 | G2A A4G A11U C15A U34G | 0.01
80 | G2A C3A A11G G35U | 0.28
81 | G2A C8U G22U U28A G36U C37U | 0.02
82 | G2A C3G C13A G22U C37G | 0.18
83 | G2A A12G G40A | 0.06
84 | G2A A12G G40U | 0.03
85 | G2A C8A C10U U34C G35A C45G | 0.23
86 | G2A A11C G22A G33A | 0.03
87 | G2A C10A A12G U34G | 0.01
88 | G2A A4G G27U U32A G35A | 0.04
89 | G2A C3U G5A G29A G44C | 0.08
90 | G2A C3G A12G G35C | 0.22
91 | G2A A12G A16C G30C | 0.11
92 | G2A A11U C23A G27A G35A G36U C45A | 0.03
93 | G2A C3A G44U C46A | 1.97
94 | G2A C10A A11C C18U A25C G29U | 0.01
95 | G1U G40C G44A | 0.05
96 | G2A C3U G30U | 1.59

Row | Variant | self-cleavage
97 | G2A A12U C15A A16U | 0.15
98 | G2A A4G A12U | 0.33
99 | G2A A25U A39C | 0.3
100 | G2A A16C C23G | 0.08
101 | G2A C10A U20G C23U G35A A41U C42G | 0.02
102 | G2A A11U C13A A14G G22U G33A | 0.04
103 | G2A A6U U9G A12G C13U A16G | 0
104 | G2A A41C C45A | 0.06
105 | G2A C8A U34C G35U | 0.71
106 | G1U U20G C23G G33C C37A | 0.01
107 | G2A C8U C15U G35C | 0.32
108 | G1U U20A A39U U43C | 0.04
109 | G1U U34C C46A | 0.12
110 | G1U U9G A11U A24C G27A G36A | 0
111 | G2A C3U A6U C8U U38C C46A | 0.4
112 | G2A A14U G22A A26U G40C C42G | 0.22
113 | G1U U20C U43A | 0.01
114 | G2A A11G G44A | 0.05
115 | G2A A11G G44C | 0.03
116 | G2A C3G A6C A11G U20A G36C C42U C45A | 0.01
117 | G2A A11U C42A | 0.03
118 | G2A A12G G27A | 0.04
119 | G2A A16U C37A | 0.09
120 | G2A C8A C18U G22C G27A | 1.42

Row | Variant | self-cleavage
121 | G2A A12G U20A G36U | 0.03
122 | G2A A4C C18A | 0.28
123 | G2A C3G G5A C8G U9G G17A | 1.55
124 | G2A C3U U28C | 1.04
125 | G2A A11U C13G A39U | 0.03
126 | G1U U20C A39U G40A | 0.05
127 | G2A C10U A12C G35U | 0.01
128 | G2A A16G C18A G19C U20C A24C G36C C45G | 0.01
129 | G2A C10A A16C G19U | 0.06
130 | G2A A16C G27U U32A G40A G44U | 0.31
131 | G2A C13A A25U G35U | 2.34
132 | G2A A26G U38A | 0.56
133 | G2A A25C G44C | 1.2
134 | G2A C8A G35U | 0.07
135 | G2A A16G C46A | 0.19
136 | G2A C8A A41U | 0.83
137 | G2A A6C A16C G17U | 0.21
138 | G2A C3G A4U G44A | 0.34
139 | G2A C8U A16G G35C | 0.26
140 | G2A A6U G30C G35U | 0.15
141 | G2A C8G C23G A26U U34C | 0.2
142 | G2A A11U G29C G40U G44U | 0.04
143 | G2A C3U G5C C13A C23U G35U C45U | 0.29
144 | G2A A6C C10A | 0.02

Row | Variant | self-cleavage
145 | G2A A6C G7A G29A G36C | 0.06
146 | G2A A4U U20C G30A | 0.16
147 | G2A A14C C18A G19U G21U C42G | 0.04
148 | G2A A12G G35C | 0.07
149 | G2A A6U C13G A16G A25C A26G | 0.12
150 | G2A C3A A6U G36U G40U C45U | 1.31
151 | G1U U32G U34G | 0.01
152 | G2A C3A C18U A25C | 0.17
153 | G2A C8G C15U | 0.1
154 | G2A A6G A12G | 0.03
155 | G1U U9G C31G | 0.04
156 | G2A C8U C13U A14U G17A U32C G33A | 0.49
157 | G2A C3U C8G U28A | 0.07
158 | G2A C8U A24U U28G | 0.2
159 | G2A C10A G22C | 0.06
160 | G2A A11U A39C | 0.1
161 | G2A C3U A11C G22U | 0.1
162 | G2A A14G C15A G21A G29U | 0.23
163 | G2A C3G A16G G22U G33A | 0.04
164 | G2A A16G C31A | 0.13
165 | G2A A26U A39C | 0.11
166 | G2A A4C A14C | 0.2
167 | G1U G40U C45U | 0.1
